# Values joined by “and” are separate entries in the source; they are usually repeats but may differ in a detail not shown here. Equal values may be shown once. The campaign covered roughly 200,000 compounds. About 860 (0.43%) were called active. The shares of active, inactive and inconclusive entries below differ from those in the screen. The call rests on the fitted dose curve; in most records, active means well fitted inhibition curve with a large enough effect; inconclusive means small, poorly fitted or top-dose-only effect; inactive means flat fitted curve, though single readings scatter. Where the call is inconclusive, the potency comes from a doubtful curve fit.
# Biological target: Cruzipain (Trypanosoma cruzi) (UniProt P25779)
# Assay: qHTS Assay for Promiscuous and Specific Inhibitors of Cruzain (with detergent); further: nearly all actives have a fitted effect of over 40% in size
# Conditions: purified cruzain, Z-FR-AMC fluorescence, 0.01% Triton
# Experimental: Cruzain (3.4.22.51) is a cysteine protease from the tropical parasite Trypanosoma cruzi. Dual qHTS experiment was performed against the NCGC compound collection in order to 1) identify novel inhibitors of the enzyme and 2) profile the compound collection for promiscuous inhibitors operating via colloidal aggregation (by performing detergent-free and detergent-containing comparison screens). Cruzain was assayed by the use of fluorogenic coumarin-based substrate Z-FR-AMC: proteolytic cleavage releases AMC, whose fluorescence is measured at 360 nm excitation and 450 nm emission. Purified cruzain was supplied by the labs of Prof. James McKerrow and Brian Shoichet, UC San Francisco.
# This assay had 0.01% Triton X-100 concentration. See also releated assay "qHTS Assay for Promiscuous and Specific Inhibitors of Cruzain (without detergent)" with 0.00005% Triton X-100.
# See following references for additional details:
# Assay Provider: Shoichet, Brian; University of California, San Fancisco
# Screening Center PI: Austin, C.P.
# Screening Center: NIH Chemical Genomics Center [NCGC]
# Buffer: 100 mM Sodium Acetate, pH 5.5, 5 mM DTT, Triton X-100 concentration: 0.01%.
# Buffer in columns 3 and 4 as negative control (no enzyme).
# Substrate solution: 2 uM final concentration of Z-FR-AMC (catalog number I-1160, Bachem) dispensed throughout the plate.
# Enzyme: 1.5 nM Cruzain final concentration in columns 1, 2, 5-48. Column 1 is neutral (100% activity). Column 2 contained titration of covalent inhibitor K11777, starting concentration 1 mM, then 1:2 dilution in duplicate).
# Three uL of enzyme or buffer were dispensed to 1536-well Greiner black solid bottom plates. Compounds and controls (23 nL) were transferred via Kalypsys PinTool. The plates were incubated for 15 min at room temperature, and then 1 uL of substrate solution was added to start the reaction. The plates were immediately transferred to and read 4 times every 30 seconds for 2 min on ViewLux High-throughput CCD imager (Perkin-Elmer) using 360 nm excitation and 450 nm emission fluorescence protocol. The fluorescence intensity difference between the third and the first time points (time lapse of 60 seconds) was used to compute reaction progress.
# Potency means the concentration at half of the fitted maximal effect; tags describe the fitted curve by direction and shape.
# Chain of UniProt P25779 (P25779 whole entry, looked up): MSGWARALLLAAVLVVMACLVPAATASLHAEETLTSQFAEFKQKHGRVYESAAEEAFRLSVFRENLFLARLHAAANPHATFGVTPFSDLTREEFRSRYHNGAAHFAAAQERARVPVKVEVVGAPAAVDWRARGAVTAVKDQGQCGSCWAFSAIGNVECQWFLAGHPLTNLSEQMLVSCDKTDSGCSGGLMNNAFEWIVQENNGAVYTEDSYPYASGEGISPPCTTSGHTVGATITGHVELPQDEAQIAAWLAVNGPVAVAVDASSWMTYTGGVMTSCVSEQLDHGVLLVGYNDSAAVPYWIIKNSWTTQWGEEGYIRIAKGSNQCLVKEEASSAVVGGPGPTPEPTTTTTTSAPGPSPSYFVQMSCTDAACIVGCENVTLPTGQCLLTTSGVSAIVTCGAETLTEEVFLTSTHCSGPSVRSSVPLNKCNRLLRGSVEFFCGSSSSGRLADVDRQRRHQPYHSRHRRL
SMILES,Potency,"max response, negative = inhibition"
CC(=O)NS(=O)(=O)c1ccc(NC(=O)c2cc(-c3ccc(C)c(C)c3)nc3ccccc23)cc1,"inconclusive: 15.8 µM [inhibitor, partial curve]",–
CCOC(=O)c1c(C)[nH]c(C)c1C(=O)COC(=O)CNC(=O)c1ccc(OCC)cc1,"inconclusive: 15.8 µM [inhibitor, partial curve]",–
CC(C)[C@@H](CC(=O)N[C@@H]1CCNC[C@H]1C(=O)N[C@H](CC(=O)N[C@@H](CCC(=O)O)CC(=O)O)Cc1ccccc1)NC(=O)C[C@H](Cc1c[nH]c2ccccc12)NC(=O)[C@@H]1CNCC[C@H]1N,–,inactive: 1.89%
CCSc1nc(N)c(C#N)c(-c2ccco2)c1C#N,"inconclusive: 20 µM [inhibitor, single point]",–
CCOc1ccc(Nc2nc(N)c(C(=O)c3ccccc3Cl)s2)cc1,–,inactive: -10.3%
O=c1oc2c3c4c(cc2s1)CCCN4CCC3,"inconclusive: 25.1 µM [inhibitor, partial curve]",–
COc1cc(NC(=S)NCCSc2ccc(C)cc2)cc(OC)c1,active: 2 µM,–
COc1cc(/C=N\Nc2nc3ccccc3[nH]2)cc(OC)c1OC,–,inactive: -18.9%
CCOc1ccc(NC(=NCc2ccc3c(c2)OCO3)SC2CC(=O)N(c3ccc(C(=O)O)cc3)C2=O)cc1 (stereo not given),"inconclusive: 35.5 µM [inhibitor, single point]",–
CN1/C(=C\C(=S)NC(=O)c2cccc(Br)c2)C(C)(C)c2ccccc21,active: 3.55 µM,–
CC(=O)c1c(C)[nH]c(C(=O)COC(=O)CCSc2ccccc2)c1C,active: 15.8 µM,–
CCCOc1ccc(-c2nc(C#N)c(N3CCc4ccccc4C3)o2)cc1,active: 25.1 µM,–
CCN1C(=O)S/C(=C/c2c(OCc3ccc(C(=O)O)cc3)ccc3ccccc23)C1=O,"inconclusive: 31.6 µM [inhibitor, single point]",–
CCOC(=O)c1c(-c2ccc(-c3ccccc3)cc2)csc1NC(=O)C1C2CCC(O2)C1C(=O)O (stereo not given),"inconclusive: 31.6 µM [inhibitor, single point]",–
CC(C)[C@H](NC(=O)OC(C)(C)C)c1nnc(S(=O)(=O)Cc2c(F)cccc2Cl)o1,active: 3.55 µM,–
Cc1ccc(CN2C(=O)C(O)(CC(=O)c3ccc(C)cc3)c3ccccc32)cc1 (stereo not given),–,inactive: -6.98%
Cc1ccc(NC(=O)CSc2nc3c(c(=O)[nH]2)CCC3)cc1Cl,–,inactive: -6.25%
CCC(C(=O)NC1CCCCC1)n1c(SCc2cccc(C)c2)nc2ccncc21 (stereo not given),active: 15.8 µM and active: 14.1 µM,–
C=CCn1ncc(OC)c(Cl)c1=O,–,inactive: 2.08%
CCNC(=O)c1cc2c(=O)n3cccc(C)c3nc2n(Cc2ccc(C)cc2)c1=N,"inconclusive: 35.5 µM [inhibitor, single point]",–
O=C(NCCN1CCCCC1)c1ccc(Cn2c(SCc3ccccc3)nc3cccnc32)cc1,–,inactive: 2.11%
CCc1ccccc1NC(=O)CCC(=O)OCC(=O)c1ccc(-c2ccccc2)cc1,–,inactive: -2.43%
COC(=O)c1cc(Cl)ccc1NC(=O)CSc1ncc(S(=O)(=O)c2ccc(Br)cc2)c(=O)[nH]1,active: 25.1 µM,–
COc1ccccc1CNC(=O)c1ccc(-c2nc(CS(=O)(=O)c3ccc(C)cc3)c(C)o2)cc1,–,inactive: -13.2%

SMILES,Potency,"max response, negative = inhibition"
Cc1ccccc1OCC(=O)NCC(=O)OCC(=O)c1ccc2ccccc2c1,active: 5.01 µM,–
Nc1ccc2ncccc2c1N,"inconclusive: 14.1 µM [inhibitor, partial curve]",–
Cc1cccc(C(=O)NCCc2nc3ccccc3n2Cc2ccc(Cl)cc2)c1,active: 7.94 µM,–
CSCCC(NC(=O)c1ccc([N+](=O)[O-])cc1Cl)C(=O)OCC(=O)NCC(F)(F)F (stereo not given),"inconclusive: 35.5 µM [inhibitor, single point]",–
COCCCNC(=O)C1CCC(Cn2c(=O)c3sccc3n(C)c2=O)CC1 (stereo not given),–,inactive: 0.432%
O=C(Nc1ccc(-c2nc3ccccc3s2)cc1)C1=COCCO1,"inconclusive: 31.6 µM [inhibitor, single point]",–
COc1ccc2c(=O)c3c(=O)n(Cc4ccco4)c(C(C)C)nc3oc2c1,"inconclusive: 28.2 µM [inhibitor, single point]",–
CCOc1ccc2cc(-c3nnc(Nc4ccccc4F)s3)c(=O)oc2c1,–,inactive: 1.33%
CCOC(=O)N1CCC(N2CCN(c3cc(C)ccc3C)CC2)CC1,"inconclusive: 3.98 µM [inhibitor, single point]",–
CC(=O)Nc1ccc(NC(=O)c2ccc(COc3ccc4c(C)cc(=O)oc4c3)cc2)cc1,–,inactive: -4.09%
COc1ccc(-c2ccc(=O)n(CC(=O)Nc3ccc(N(C)C)cc3)n2)cc1,–,inactive: -2.42%
COc1cc(C2Oc3cc(C4Oc5cc(O)cc(O)c5C(=O)C4O)ccc3OC2CO)ccc1O (stereo not given),"inconclusive: 28.2 µM [inhibitor, single point]",–
Cc1ccc2cc3cc(C(=O)NCCN4CCOCC4)oc3nc2c1,"inconclusive: 28.2 µM [inhibitor, single point]",–
Cc1ccc(C(=O)N(c2ccccc2)C2CC(C)N(C(=O)c3ccco3)c3ccccc32)cc1 (stereo not given),–,inactive: -1.44%
NC(=S)N=Nc1c(O)[nH]c2ccc(F)cc12,active: 14.1 µM,–
O=C(Nc1cccc(F)c1)[C@@H](c1ccccc1)N1Cc2ccccc2C1=O,–,inactive: -2.89%
CCOCCCNc1ncnc2c1[nH]c1ccccc12,"inconclusive: 25.1 µM [inhibitor, single point]",–
Cc1ccccc1NC(=O)CSc1nnc(-c2ccco2)c(-c2ccco2)n1,active: 25.1 µM,–
CS(=O)(=O)Oc1ccccc1/C=C1/N=C(c2ccc(F)cc2)OC1=O,active: 14.1 µM,–
Brc1cccc(/C=N\n2cnnc2)c1,"inconclusive: 25.1 µM [inhibitor, single point]",–
C(=N\Nc1nc2ccccc2[nH]1)/c1c[nH]c2ccccc12,"inconclusive: 15.8 µM [inhibitor, partial curve]",–
COc1ccc(-c2cc(C(F)(F)F)c3c(n2)sc2c(O)cc(=O)[nH]c23)c(OC)c1,"inconclusive: 22.4 µM [inhibitor, single point]",–
COc1ccc(-c2onc(C)c2C)cc1S(=O)(=O)N(C)Cc1ccccc1,–,inactive: 2.68%
CCCCC/C=C\C/C=C\C/C=C\C/C=C\CCCC(=O)N(Cc1ccc(O)c(Cl)c1)Cc1ccc(O)c(Cl)c1,"inconclusive: 3.16 µM [inhibitor, single point]",–

SMILES,Potency,"max response, negative = inhibition"
CC(C)Cn1c(N)c(C(=O)COC(=O)c2cc(C3CC3)nc3ccccc23)c(=O)n(C)c1=O,–,inactive: -1.65% and inactive: -5.75%
CCCCN(CCCNC(=O)c1cc(Nc2ccc(OC)c(OC)c2)nc2ccccc12)c1ccccc1,–,inactive: -3.81%
CC(OC(=O)CNC(=O)c1ccccc1F)C(=O)Nc1nc(-c2ccccc2)cs1 (stereo not given),active: 7.94 µM,–
CCc1cc2c(cc3c(=O)n(CCCC(=O)NCc4cccc(Cl)c4)ncn32)s1,–,inactive: -0.127%
Cn1c(=O)oc2cc(S(=O)(=O)N3CCc4ccccc4C3)ccc21,–,inactive: 6.24%
O=C1c2ccccc2C(Nc2ccc(F)c(Cl)c2)N1Cc1ccco1 (stereo not given),"inconclusive: 28.2 µM [inhibitor, single point]",–
O=C(COC(=O)CSc1cc(Cl)ccc1Cl)Nc1ncc(C(F)(F)F)cc1Cl,–,inactive: -23.4%
O=C(COC(=O)CCC(NC(=O)OCc1ccccc1)C(=O)OCC(=O)Nc1ccccc1)Nc1ccccc1 (stereo not given),"inconclusive: 35.5 µM [inhibitor, single point]",–
CC(C)CC(=O)NC(=S)Nc1cccc(NC(=O)c2ccccc2)c1,"inconclusive: 2.24 µM [inhibitor, full curve]",–
CCCCN(Cc1ccco1)C(=O)c1cc2c(s1)-c1c(C)cccc1OC2,"inconclusive: 22.4 µM [inhibitor, single point]",–
COc1ccc(-n2ccnc(NCc3cccs3)c2=O)cc1,–,inactive: -4.47%
CCn1c(=O)cc(SCC(=O)Nc2cc(Cl)ccc2OC)c2ccccc21,–,inactive: -1.95%
Cc1cc(-c2nc3ncccc3o2)ccc1N,active: 28.2 µM,–
OCCOCCN1CCN([C@@H](c2ccccc2)c2ccc(Cl)cc2)CC1,–,inactive: 0.978%
COc1cccc2c1C(=O)c1c(O)c3c(c(O)c1C2=O)C[C@@](O)(C(=O)CO)C[C@@H]3O[C@H]1C[C@H](N)[C@H](O)[C@H](C)O1,"inconclusive: 28.2 µM [inhibitor, partial curve]",–
O=C(COC(=O)[C@H](Cc1c[nH]c2ccccc12)NC(=O)c1ccc(Cl)cc1)Nc1ccc2c(c1)OCO2,active: 3.55 µM,–
CCOCCCNC(=O)c1cc2c(=O)n3ccccc3nc2s1,"inconclusive: 31.6 µM [inhibitor, single point]",–
CCCCCCC(=O)NCC(=O)OCC(=O)c1ccccc1,"inconclusive: 25.1 µM [inhibitor, single point]",–
COc1ccc(S(=O)(=O)n2nc(OC(=O)c3cccs3)cc2N)cc1,"inconclusive: 25.1 µM [inhibitor, partial curve]",–
CCC(=O)OCc1cnc(C)c2oc(=O)c(C(=O)Nc3ccc(CC)cc3)cc12,–,inactive: 0.296%
Cc1ccc(C(=O)N2CCN(c3ccc([N+](=O)[O-])c(NCc4cccnc4)c3)CC2)cc1,"inconclusive: 17.8 µM [inhibitor, partial curve]",–
Cc1oc(=O)c(NC(=O)c2ccccc2)cc1C(=O)c1ccccc1,active: 3.16 µM,–
